According to article PMC12136788:
This is one part of the list.

T1: UNK ZnF1-3 (human, UniProt Q9C0B0 31-174)
T1 sequence: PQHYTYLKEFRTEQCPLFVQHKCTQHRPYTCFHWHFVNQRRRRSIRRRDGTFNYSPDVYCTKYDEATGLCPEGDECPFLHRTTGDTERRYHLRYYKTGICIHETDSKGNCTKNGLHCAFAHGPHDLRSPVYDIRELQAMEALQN

B1: 10179666_10186851_1820_CDS_ENSG00000130939_ENST00000377157|human|control|control (ssRNA)
RNA: GGGAGUUCUACAGUCCGACGAUCCUGCUUGAACACUUCUUCAUCCUGGUGAGUGGUUCUCACCAGUUCCUGAAUGAAGCCAUAUGGGAGAUUCCUACACAGCAUAUACGGCACUAGGAAGGACGGCUGCUGCAAGGACCUGGGCAACAGAGGAUUGAGCAUCA
B2: chr12:76453654:76453655:-_ENSG00000187109_ENST00000548044|hu_mus|FALSE|FALSE (ssRNA)
RNA: GGGAGUUCUACAGUCCGACGAUCUGGUUUCCACUCGCAUUCUUCUUCUGUAGGUUCAUAGAUUGCAUUAAUGAUCUCAAAUCGCUUAUCAAAUAAAGGCUGAUAGAGAACAGCAUACUUCCUCUCGAGAUCAUGAACUUCCUCCAACAGAGGAUUGAGCAUCA
B3: chrX:65951094:65951095:+_ENSMUSG00000000838_ENSMUST00000114657|mus_hu|FALSE|FALSE (ssRNA)
RNA: GGGAGUUCUACAGUCCGACGAUCCUGCCUUGAACUCUCCAGCUGCUUACUAGCUUCUUCAUUUCUCAUUAUCAGAGACAACUUAGUGCGCAGACUCCGAAAGUGCAUGUCAAUCAGCAUAUGUGCUCGCUUUGAGGUGACUUCCAACAGAGGAUUGAGCAUCA
B4: 150444430_150444550_3070_CDS_ENSG00000163125_ENST00000369068|human|control|control (ssRNA)
RNA: GGGAGUUCUACAGUCCGACGAUCUGAGAGACUGACACCAUCACUUGGAGUGCCCUUGCUGGGAGCCUGGCCAAAAUGCUUAUCAUCUGAGGGCUUACGUGAGGCGUUUUUAAGCAUAUUCUUAAAUUCAAUCGUCGACGUGGUCAACAGAGGAUUGAGCAUCA
B5: chr4:13698614:13698615:+_ENSMUSG00000006586_ENSMUST00000098257|mus_hu|FALSE|FALSE (ssRNA)
RNA: GGGAGUUCUACAGUCCGACGAUCACUCAGUGCUCUCCAAGUGUUUCUUUUGACAGAUAUCAUUCUCCACCAAUCGCUCUGCUAAUUUCCUCUCUCCUUUUCUGACUGGGACAGAGAUUAUGUUCACCAGCCCAGAGAUCAAUCCAACAGAGGAUUGAGCAUCA
B6: 168329133_168329253_1585_CDS_ENSMUSG00000040596_ENSMUST00000169324|mouse|control|control (ssRNA)
RNA: GGGAGUUCUACAGUCCGACGAUCAUCCAGCACCUGCAGCUGGGAGGUCAGGCCCCCUGGGAUGAUCACCAUGUCCGUGUUCAUGUUCUCCAUGGAACUCUUCACAGAGUCAGUGGCAUGGCACCGGAAGCCAUUCAGGAUCAGCAACAGAGGAUUGAGCAUCA

Each binder was assayed against T1, UNK ZnF1-3 (assay: nsRBNS (natural sequence RNA bind-n-seq); RBNS binding buffer (assumed for nsRBNS): 25 mM Tris pH 7.5, 150 mM KCl, 3 mM MgCl2, 0.01% Triton X-100, 500 ug/ml BSA, 20 U/ml SUPERase-In, 4 C; UNK is unkempt and MSI1 is Musashi-1; names of the RNAs are library labels; protein concentration not given here; high values mean tight binding).

Binder | binding signal
B1 | 0.917 enrichment R
B2 | 0.85 enrichment R
B3 | 0.798 enrichment R
B4 | 0.984 enrichment R
B5 | 0.815 enrichment R
B6 | 1.34 enrichment R
